Measurements: PMC4336329 (PLoS ONE, 2015)
About 2,200 (0.71%) of roughly 310,000 compounds showed an effect of 50% or more. The effect is printed as a negative number. The list shows a part of the results.

Biological target: human ether-à-go-go-related gene (hERG) potassium channel (human, UniProt Q12809)
Test: primary screen, population patch clamp on CHO cells stably expressing hERG

human ether-à-go-go-related gene (hERG) potassium channel, sequence (Q12809 whole entry, looked up): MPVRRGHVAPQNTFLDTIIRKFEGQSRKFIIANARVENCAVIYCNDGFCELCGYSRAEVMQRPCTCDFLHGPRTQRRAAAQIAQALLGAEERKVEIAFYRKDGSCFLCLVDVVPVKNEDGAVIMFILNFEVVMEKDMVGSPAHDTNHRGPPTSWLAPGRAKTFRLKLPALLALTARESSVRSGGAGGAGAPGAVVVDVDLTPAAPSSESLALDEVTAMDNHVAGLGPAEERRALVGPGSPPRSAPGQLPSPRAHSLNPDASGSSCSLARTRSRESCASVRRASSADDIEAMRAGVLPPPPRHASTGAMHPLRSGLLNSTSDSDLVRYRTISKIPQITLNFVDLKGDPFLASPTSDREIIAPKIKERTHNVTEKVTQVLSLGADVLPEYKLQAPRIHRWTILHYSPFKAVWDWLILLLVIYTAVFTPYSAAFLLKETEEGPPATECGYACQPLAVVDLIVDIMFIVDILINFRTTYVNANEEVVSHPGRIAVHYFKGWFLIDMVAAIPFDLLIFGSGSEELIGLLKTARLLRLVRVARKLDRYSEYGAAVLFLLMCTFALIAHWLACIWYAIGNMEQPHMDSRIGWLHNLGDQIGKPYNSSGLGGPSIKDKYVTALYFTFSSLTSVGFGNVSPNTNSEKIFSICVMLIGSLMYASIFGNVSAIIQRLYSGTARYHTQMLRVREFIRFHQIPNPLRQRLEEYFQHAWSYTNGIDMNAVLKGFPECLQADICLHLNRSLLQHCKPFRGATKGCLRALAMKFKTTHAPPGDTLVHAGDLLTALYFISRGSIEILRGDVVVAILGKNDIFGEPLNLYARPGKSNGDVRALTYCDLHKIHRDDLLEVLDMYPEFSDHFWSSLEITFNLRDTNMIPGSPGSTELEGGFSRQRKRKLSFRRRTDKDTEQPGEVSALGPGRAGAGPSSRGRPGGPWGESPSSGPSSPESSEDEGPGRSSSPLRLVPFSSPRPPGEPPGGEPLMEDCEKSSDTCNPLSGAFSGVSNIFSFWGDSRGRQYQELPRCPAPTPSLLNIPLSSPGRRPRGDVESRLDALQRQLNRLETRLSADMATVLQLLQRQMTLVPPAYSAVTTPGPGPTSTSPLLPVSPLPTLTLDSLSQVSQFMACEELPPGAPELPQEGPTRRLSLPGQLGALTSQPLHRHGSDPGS

| SMILES | hERG current change (%, negative = inhibition) at 1uM [%] |
| --- | --- |
| CCOC(=O)c1c(C)nc2c(c1C)/C(=N/O)CC(C)(C)C2 | 11.6 |
| Cc1cc(NC(=O)CSc2nnc(CNC(=O)c3ccccc3)o2)no1 | 4.63 |
| COc1ccc(-n2c(-c3ccccc3)c[n+]3c2CCC3)cc1.[Br-] | 6.43 |
| O=C(Cn1cnc2c(nnn2-c2ccccc2)c1=O)N1CCCc2ccccc21 | -4.2 |
| O=S(=O)(CCc1nnc(-c2ccc(Br)cc2)o1)c1ccc(Cl)cc1 | 6.04 |
| CC1CCCC(NC(=O)CSC2CCCCC2)C1C (centres unmarked) | -4.18 |
| COCCSc1ccccc1C(=O)Nc1ccccc1C(C)C | 8.69 |
| O=c1c(/C=N/N2CCOCC2)c(C(F)(F)F)[nH]n1-c1ccccc1 | 5 |
| O=C(Cn1cnc2c(nnn2Cc2ccccc2F)c1=O)NCc1ccco1 | 3.49 |
| COC(=O)c1ccc(C)c(NC(=O)C(CCSC)NC(=O)c2cc(OC)c(OC)c(OC)c2)c1 (centres unmarked) | 13.8 |
| CCN(CCCNC(=O)c1c(C)cc(=O)oc1C)c1cccc(C)c1 | -10.5 |
| COc1ccccc1NC(=O)C1Cc2ccccc2CN1C(=O)c1ccco1 (centres unmarked) | 7.78 |
| COc1ccc(-c2nc3ccc(C)cn3c2NCc2ccccc2)cc1SC1CCCCC1.O=C(O)C(F)(F)F | 8.17 |
| Cc1ccc(NC(=O)COC(=O)c2cccnc2)c(C)c1 | 16.2 |
| CC(C)CC(C)N1CCC(n2nccc2NC(=O)CCc2ccccc2)CC1 (centres unmarked) | 9.07 |
| Cc1ccc(S(=O)(=O)N2CCOCC2)cc1C(=O)OCC(=O)c1ccc(Br)cc1 | 10.7 |
| Cn1c(=O)oc2cc(NC(=O)CCl)ccc21 | 6.38 |
| CCOc1ccc2nc(N(CCN(C)C)C(=O)/C=C/c3cccs3)sc2c1.Cl | 6.02 |
| COc1cc(NC(=O)c2ccc3c(c2)OCO3)ccc1NC(=O)C(C)C | 13.6 |
| COc1ccc(OC(C)C(=O)Nc2cccc(F)c2)cc1 (centres unmarked) | 12.7 |
| O=C(NCCCN1CCOCC1)c1cc(S(=O)(=O)N2CCN(c3ccccc3)CC2)ccc1Cl | -12.1 |
| CCN1CCN(c2cc(=O)n(-c3cc(Cl)ccc3C)c(=O)[nH]2)CC1 | -0.632 |

| SMILES | hERG current change (%, negative = inhibition) at 1uM [%] |
| --- | --- |
| COc1ccc(S(=O)(=O)Cc2ccc(C(=O)N3CCN(c4cccc(C)c4)C(C)C3)o2)cc1 (centres unmarked) | -7.82 |
| CSc1cccc(N/C(=N/S(=O)(=O)c2ccccc2)NN)c1 | 5.31 |
| CCn1c(C(=O)NC(C)c2ccc3c(c2)OCCO3)cc2sccc21 (centres unmarked) | 7.01 |
| COc1ccc(Nc2ncc(C(=O)N3CCN(Cc4ccccc4)CC3)c3ccccc23)cc1 | 6.09 |
| COC(=O)C(C(=O)Nc1ccccc1C)C1CCCC1 (centres unmarked) | 15.9 |
| O=C(CCC(=O)c1ccc(-c2ccccc2)cc1)Nc1cccnc1 | 4.5 |
| CC(C)(C)c1cnnn1-c1ccc(NC(=O)c2ccc3c(c2)OCO3)cc1 | -0.754 |
| COC(=O)c1nc(-c2ccccc2)nc(-c2ccccc2)c1C(=O)OC | -14.1 |
| CCC1CN(C(=O)N2CCC(C(=O)NCc3ccco3)CC2)c2cc(C)ccc2O1 (centres unmarked) | 2.69 |
| O=C(Cc1ccc(-c2ccccc2)cc1)NCc1ccccc1 | 22 |
| O=C(N/N=C/c1c(O)ccc2ccccc12)c1[nH]ncc1Br | 6.16 |
| Cc1ccc(C(=O)CSc2nnc(COc3ccc(C#N)cc3)n2-c2ccccc2)cc1 | 11.8 |
| CC(=O)C(N=Nc1ccccc1)(Sc1nnc(-c2ccccc2)n1-c1ccccc1)C(=O)Nc1ccccc1 (centres unmarked) | 6.26 |
| CC(=O)N1CCN(c2ccc(S(C)(=O)=O)cc2[N+](=O)[O-])CC1 | 6.42 |
| CN(C)c1ccc(C2Nc3cccc4cccc(c34)N2)cc1 | 14.2 |
| O=C(NNC(=O)c1cc(O)c(O)c(O)c1)NC1CCCCC1 | 5.06 |
| O=S(=O)(c1ccccc1Cl)N1CCCC(c2nc(-c3cccnc3)no2)C1 (centres unmarked) | -32.1 |
| Cc1nc2c3cnn(-c4ccccc4)c3ncn2n1 | 18.3 |
| CC1O[C@@H](O[C@H](C)CC/C=C/C(=O)O)C(O)C[C@H]1O (some centres unmarked) | 8.02 |
| CCOc1ccc(C(=O)NC2CC3CCCC(C2)N3Cc2ccccc2)cc1 (centres unmarked) | -20.4 |
| CSCCC(NC(=O)c1ccc(Cl)c([N+](=O)[O-])c1)C(=O)N1CCN(C/C=C/c2ccccc2)CC1 (centres unmarked) | -1.51 |
| O=C(Nc1ccc2c(c1)OCO2)C1Cc2ccccc2CN1S(=O)(=O)c1cccs1 (centres unmarked) | 11.7 |

| SMILES | hERG current change (%, negative = inhibition) at 1uM [%] |
| --- | --- |
| Cc1ccc(-n2ncc3c(=O)[nH]c(SCC(=O)N4CCCc5ccccc54)nc32)cc1 | 8.81 |
| Cc1cc(C)n(C(=O)CCC2COc3ccccc3O2)n1 (centres unmarked) | -19.1 |
| COc1ccc(-c2csc3ncnc(NCCO)c23)cc1 | 12.2 |
| CCc1cc(C(=O)OC)c(NC(=O)C2CC(=O)NN2Cc2ccccc2)s1 (centres unmarked) | -9.03 |
| Cc1ccc(NC(=O)NC2C(NC(=O)Nc3ccc(C)cc3)N(C)C(=O)N2C)cc1 (centres unmarked) | 9.78 |
| O=C(c1cccc(C(F)(F)F)c1)N1CCN(c2cc(=O)[nH]nc2-c2ccccc2)CC1 | 10.4 |
| O=C(NNc1ncnc2sccc12)c1ccc(Cl)cc1 | 12.4 |
| O=C(c1ccccc1OCc1ccc(Cl)cc1)N1CCN(c2ccccn2)CC1 | 1.14 |
| Cc1ccc(NC(=O)CSc2ccccc2NC(=O)c2ccccc2)cc1Cl | 1.54 |
| O=C(Nc1cccc(S(=O)(=O)N2CCOCC2)c1)C1CCCN(C(=O)c2ccc(Cl)cc2)C1 (centres unmarked) | -2.81 |
| COc1ccc(Nc2cc(NCCCO)c([N+](=O)[O-])c3nonc23)cc1 | 20.4 |
| CCn1c(=O)c2cc(C(=O)Nc3cc(C)on3)sc2c2ccccc21 | -1.81 |
| CC1CN(c2cc3nccnc3cc2F)CC(C)O1 (centres unmarked) | -0.277 |
| Cc1c(CN(C)C)c2c(n1Cc1ccccc1)C(=O)c1ccc(Br)cc1-2.Cl | -16.4 |
| COc1ccc(Br)cc1/C=N/NC(=O)CNC(=O)C1COc2ccccc2O1 (centres unmarked) | 0.265 |
| NS(=O)(=O)c1ccc(NC(=O)/C=C/c2cn(-c3ccccc3)nc2-c2cccc(Cl)c2)cc1 | 35.3 |
| CCN(CC)S(=O)(=O)c1ccc(O)c(C(=O)OCC(=O)N(C)Cc2ccccc2)c1 | -13.7 |
| CCN1C(=O)/C(=C/C=C2/Sc3ccc4ccccc4c3N2CCO)SC1=S | 10.3 |
| Cc1cc2cc(CN(CCN3CCOCC3)C(=O)Nc3ccccc3F)c(=O)[nH]c2cc1C | 6.58 |
| O=C(Nc1ccc(OCC(F)(F)C(F)F)c(C(F)(F)F)c1)c1ccccc1O | 6.76 |
| CC1CC(C)(C)CC(=O)C1C(=O)c1ccccc1 (centres unmarked) | 14.8 |
| O=S(=O)(NCc1ccccc1)c1ccc(F)cc1Br | 0.966 |

| SMILES | hERG current change (%, negative = inhibition) at 1uM [%] |
| --- | --- |
| O=C(NCc1ccccc1)c1ccc(Cl)c(NC2=NC3CS(=O)(=O)CC3S2)c1 (centres unmarked) | 7.98 |
| Cc1cc(C)c2c(C)nn(C3CCCCC3)c2n1 | 11.1 |
| COc1cc(CN2CC(=O)N(c3ccccc3Cl)C2=S)cc(OC)c1OC | 17.3 |
| COc1ccccc1COCC(O)CNCC1(N2CCCCC2)CCCCC1.O=C(O)C(=O)O (centres unmarked) | 0.206 |
| O=C(CCNC(=O)N1CCn2c1nc1ccccc12)NCc1ccc(Cl)cc1 | 5.76 |
| Cc1nonc1CC(=O)N1CCc2c([nH]c3ccccc23)C1c1ccccc1F (centres unmarked) | 16.6 |
| Cc1cccc(NC(=O)NC2CCCCCCC2)c1 | 16.6 |
| COCCCNC(=O)c1ccccc1C(F)(F)F | 3.53 |
| Cc1nn(-c2ccccc2)c(N2CCCC2)c1/C=N/O | -14.1 |
| Cc1cccc(C)c1NC(=O)COC(=O)CCc1ccc(S(=O)(=O)N2CCCCC2)cc1 | 9.46 |
| CS/C(=N\S(=O)(=O)c1cccs1)Nc1ccc(Cl)cc1 | 5.7 |
| O=C(Nc1ccc(F)cc1)Nc1ccc(S(=O)(=O)N2CCCC2)cc1 | 11.9 |
| CCOC(=O)CSc1nc2sc(C)c(C)c2c(=O)n1N | 13.7 |
| CCOC(=O)c1cc2n(n1)C(C(F)(F)F)CC(C)N2 (centres unmarked) | 13.3 |
| O=C(NC1CC1)C1CCN(Cc2cnn(-c3ccccc3)c2-n2cccc2)CC1 | 12.4 |
| COc1cccc(C(=O)Nc2cccc3c2ccc2cccn23)c1 | 4.47 |
| Cc1nnc(Nc2ccccn2)c2ccccc12 | -16.2 |
| O=C(NCc1ccc(Cl)cc1)c1noc2c1CCCCC2 | -6.49 |
| OC(C#CCN1CCCC1)(c1ccccc1)c1cccnc1 (centres unmarked) | 8.13 |
| COC(=O)C1=C(C(=O)OC)[C@@H]2N(Cc3ccccc3)c3ccccc3[C@@]23C[C@@H](C(=O)OC)N(C(C)=O)C3=N1 | 14.4 |
